From paper PMC4336329 (PLoS ONE, 2015)
Screen size: about 310,000 compounds; about 2,200 (0.71%) showed an effect of 50% or more. Effects have a minus sign here. The list shows a part of the results.

What follows are compounds tested against human ether-à-go-go-related gene (hERG) potassium channel (human, UniProt Q12809) (assay: primary screen, population patch clamp on CHO cells stably expressing hERG).
human ether-à-go-go-related gene (hERG) potassium channel, sequence (Q12809 whole entry, looked up): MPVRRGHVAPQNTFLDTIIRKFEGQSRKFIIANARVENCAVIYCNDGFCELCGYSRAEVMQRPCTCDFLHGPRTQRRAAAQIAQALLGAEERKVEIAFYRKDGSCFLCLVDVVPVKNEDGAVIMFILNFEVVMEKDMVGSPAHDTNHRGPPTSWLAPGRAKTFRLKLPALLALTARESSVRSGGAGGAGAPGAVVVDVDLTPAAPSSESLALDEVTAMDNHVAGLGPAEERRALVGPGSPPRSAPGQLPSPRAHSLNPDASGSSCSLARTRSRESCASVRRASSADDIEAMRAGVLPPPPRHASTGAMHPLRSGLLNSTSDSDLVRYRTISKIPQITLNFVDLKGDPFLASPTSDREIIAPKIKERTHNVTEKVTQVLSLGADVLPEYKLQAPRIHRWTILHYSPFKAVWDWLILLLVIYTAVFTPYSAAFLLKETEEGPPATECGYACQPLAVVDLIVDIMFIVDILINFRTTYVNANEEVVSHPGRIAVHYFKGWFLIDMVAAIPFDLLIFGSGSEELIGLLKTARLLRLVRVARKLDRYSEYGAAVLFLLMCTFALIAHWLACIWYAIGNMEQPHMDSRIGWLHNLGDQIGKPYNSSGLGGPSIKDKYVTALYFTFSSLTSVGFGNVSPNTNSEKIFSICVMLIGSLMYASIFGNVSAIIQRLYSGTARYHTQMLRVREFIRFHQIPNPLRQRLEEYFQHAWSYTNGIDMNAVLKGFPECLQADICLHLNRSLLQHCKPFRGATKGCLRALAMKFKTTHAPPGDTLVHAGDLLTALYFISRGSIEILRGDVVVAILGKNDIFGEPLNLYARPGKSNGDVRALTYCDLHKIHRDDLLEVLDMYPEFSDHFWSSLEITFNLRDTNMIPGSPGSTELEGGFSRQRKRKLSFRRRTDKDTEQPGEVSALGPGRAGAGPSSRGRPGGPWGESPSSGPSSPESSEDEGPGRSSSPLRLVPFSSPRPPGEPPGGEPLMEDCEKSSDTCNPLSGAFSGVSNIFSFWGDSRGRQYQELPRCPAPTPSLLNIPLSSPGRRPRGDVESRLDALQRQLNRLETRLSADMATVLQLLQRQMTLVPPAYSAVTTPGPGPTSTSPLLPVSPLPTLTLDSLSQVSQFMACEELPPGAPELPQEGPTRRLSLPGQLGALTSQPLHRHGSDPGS

| SMILES | hERG current change (%, negative = inhibition) at 1uM [%] |
| --- | --- |
| O=C(/C=C/c1ccc(S(=O)(=O)N2CCOCC2)cc1)NCc1ccc(Cl)cc1 | -21.5 |
| Cc1c(C)c2ccc(OC(C)C(=O)NCCN3CCOCC3)c(C)c2oc1=O (centres unmarked) | 14.8 |
| Cc1cccc(-c2noc(-c3ccccc3C(=O)NCc3ccco3)n2)c1 | 1.35 |
| Cc1c(C)c2cc(Cl)c(O)c(CN(C)C)c2oc1=O | 15.4 |
| O=C(/C=C/c1ccccc1)N/C(=C\c1ccco1)C(=O)O | 14.2 |
| Cc1ccc2cc(C3CC(c4ccco4)=NN3C(=O)CCCC(=O)O)c(Cl)nc2c1 (centres unmarked) | 2.86 |
| Cc1ccc(C(=O)NCC(=O)OCC(=O)c2ccc3c(c2)NC(=O)CO3)cc1 | -11 |
| Clc1ccc(COc2ccccn2)cc1Cl | 3.38 |
| O=C(NC1CCCc2ccccc21)C1CCCO1 (centres unmarked) | 10.6 |
| COc1cccc(C(C(=O)NCC2CCCO2)N(C(=O)Cn2nnc3ccccc32)c2ccccc2C(C)=O)c1OC (centres unmarked) | 15.6 |
| CCOC(=O)C1(CC2CC2)CCN(Cc2cnc(N(C)C)s2)CC1 | 3.01 |
| Cc1sc2nc(C(C)C)nc(SCC(=O)N3CCN(C(=O)c4ccco4)CC3)c2c1C | -41.5 |
| Cn1cc(-c2ccccc2)cc(C#N)c1=O | 10.2 |
| COc1ccccc1NC(=O)CSc1nccc(-c2ccco2)n1 | 10.2 |
| O=C(Nc1ccc(F)cc1F)C1(c2cccs2)CCOCC1 | 12.7 |
| COc1ccc(/C=C2/C(=O)N(c3ccccc3)N=C2C)cc1 | 16 |
| COC(=O)CN(C(=O)CSc1nnc(-c2cccc(OC)c2)o1)c1ccc(OC)cc1 | 0.674 |
| Br.CC1CC(C)CN(CC(=O)c2ccc(OC(F)F)cc2)C1 (centres unmarked) | -96.1 |
| CCOC(=O)c1sc(NC(=O)CCN2CC(C)OC(C)C2)c(C(=O)OCC)c1C.O=C(O)C(=O)O (centres unmarked) | 14.5 |
| CC(C)c1onc(C(=O)N(C)Cc2ccccc2)c1[N+](=O)[O-] | -0.336 |
| Cc1ccc(NC(=O)Cc2n[nH]c(=S)n2C)cc1 | 11.5 |
| COCC1CCCC1OS(N)(=O)=O (centres unmarked) | 1.23 |

| SMILES | hERG current change (%, negative = inhibition) at 1uM [%] |
| --- | --- |
| Cc1ccc(S(=O)(=O)N2CCCCC2)c(C)c1NS(C)(=O)=O | 10.6 |
| Cc1ncc([N+](=O)[O-])n1Cc1ccc(Cl)cc1 | 1.88 |
| CC1CCN(C(=O)COc2cccc3c2CCN(C)C3=O)CC1 | 8.37 |
| O=C(CCn1c(=O)oc2ccccc21)N1CCCCCC1 | 5.22 |
| CN(CC(=O)Nc1cccc(F)c1)C(=O)CN1C(=O)C2CC=CCC2C1=O (centres unmarked) | -4.22 |
| N#CCCn1nc(-c2ccc(Cl)cc2)cc1Nc1ccccc1NC(=O)C(F)(F)F | 9.25 |
| CCCn1ncc(CN2CCN(Cc3ccc(C)o3)C(CCO)C2)c1C (centres unmarked) | 4.23 |
| CC(C)(C)NCC(O)CON=C1c2ccccc2-c2ccccc21 (centres unmarked) | 9.88 |
| Cc1cc(C(=O)N/N=C2\CCCC(=O)C2)c2ccccc2n1 | 0.574 |
| COc1ccc(C(C)(C)C)cc1NC(=O)c1cccc(S(=O)(=O)N2CCN(C(C)=O)CC2)c1 | 13.5 |
| O=C1CSC(c2ccccn2)N1c1cccc(Cl)c1 (centres unmarked) | 9.69 |
| COc1cccc(OC)c1C(=O)Nc1ccc2c(c1)OCCO2 | 8.4 |
| COc1ccc(-n2c(SCC(=O)c3c(N)n(C)c(=O)n(C)c3=O)nc3ccccc32)cc1 | 12 |
| CC(=O)Nc1ccc(Nc2ccc([N+](=O)[O-])cn2)cc1 | 3.5 |
| CC(=O)Nc1cccc(/C(C)=N/NC(=O)c2cc(-c3ccncc3)nc3ccccc23)c1 | 5.58 |
| COCCNC(=O)c1cn(C)c2ccccc2c1=O | 17.9 |
| CC1(C)CC(=O)c2cc(C(=O)NC3CCSC3=O)c(=O)n(-c3ccc(Cl)cc3)c2C1 (centres unmarked) | 7.79 |
| O=C(c1ccco1)N1CCN(C(c2ccccc2F)c2nnnn2Cc2cccs2)CC1 (centres unmarked) | 4.73 |
| CNS(=O)(=O)c1ccc2nc(NC(=O)/C=C/c3ccco3)sc2c1 | 8.11 |
| CCOC(=O)C1(Cc2ccc(OC)cc2)CCN(C(=O)C2CCCO2)CC1 (centres unmarked) | 5 |
| CSc1nc(C)c2cc(C)oc2n1 | 6.8 |
| O=C(O)C1CC(=O)N(C2CCCCCC2)C1 (centres unmarked) | 7.79 |

| SMILES | hERG current change (%, negative = inhibition) at 1uM [%] |
| --- | --- |
| CC1(C)CC(=O)C2=C(C1)c1c(ccc3ccccc13)NC2c1cc([N+](=O)[O-])cc([N+](=O)[O-])c1O (centres unmarked) | 13.8 |
| CCOCCOC(=O)C1=C(C)NC(=O)NC1c1cc2c(cc1Br)OCO2 (centres unmarked) | -37.4 |
| CC(=O)c1cccc(NC(=O)N2CCCC2C(=O)NCc2ccc3c(c2)OCO3)c1 (centres unmarked) | 17.7 |
| COc1ccc(C(=O)N/C(=C\c2cccc([N+](=O)[O-])c2)C(=O)Nc2cccc(C(=O)O)c2)cc1 | 4.12 |
| Cc1cc(C(=O)NCCC(c2ccccc2)c2ccccc2)c(C)o1 | -2.51 |
| CCCCOc1ccc(C(=O)NCC(=O)OCC(=O)N2CCN(S(=O)(=O)c3ccc(C)cc3C)CC2)cc1 | 5.53 |
| O=C(c1cc2c(s1)CCCCC2)N1CCN(c2ncccn2)CC1 | 0.784 |
| CN(C)c1cc(NC(=O)CNC(C)(C)C)c2ccccc2n1.O=C(O)C(=O)O | 2.05 |
| CCOC(=O)N1CCC(N2CCN(S(=O)(=O)c3ccc(NC(C)=O)cc3)CC2)CC1.O=C(O)C(=O)O | -1.69 |
| Cc1ccn2c(=O)nc(SCC(=O)Nc3ccc4c(c3)OCCO4)nc2c1 | -3.93 |
| Nc1nonc1-n1nnc(C(=O)N/N=C/c2ccccc2)c1CSc1ccccc1 | 11.7 |
| C/C(CC(=O)Nc1ccc(Cl)c(Cl)c1)=N\NC(=O)Cc1ccccc1 | 4.75 |
| COc1ccc(-n2nc3c(c2NC(=O)C2CC(=O)N(c4ccccc4)C2)CS(=O)(=O)C3)cc1 (centres unmarked) | 9.67 |
| NCCCC[C@@H]1NC(=O)[C@H](CCC(=O)O)NC(=O)c2cc([N+](=O)[O-])cc(I)c2OCC[C@@H](C(N)=O)NC1=O | 8.25 |
| CCOC(=O)C(C)Sc1nc2ccccc2c(=O)n1CC1CCCCC1 (centres unmarked) | -0.0096 |
| Cc1ccc(NCCC(=O)c2cccs2)cc1 | 9.37 |
| Nc1nc(Nc2ccccc2)nc(NC2CCCCC2)c1[N+](=O)[O-] | 2.05 |
| Cl.N/C(=N\O)C1COc2ccccc2O1 (centres unmarked) | 18 |
| COc1cccc2cc(C(=O)NCc3ccccn3)c(=O)oc12 | 6.54 |
| CCC(CC)c1nn2c(N)c(/C=C3\C=Nc4ccccc43)c(=O)nc2s1 | 0.425 |
| CCN(CC(=O)NC(=O)NC1CCCCC1)Cc1ccccc1 | 1.4 |
| CCCCNC(=O)CCn1c(=O)c2ccccc2n(Cc2ccc(F)cc2)c1=O | 0.583 |

| SMILES | hERG current change (%, negative = inhibition) at 1uM [%] |
| --- | --- |
| Cc1ccc(C(=O)N(C)CC(=O)Nc2ccc(Cl)c(C(F)(F)F)c2)cc1S(=O)(=O)N1CCCCC1 | 11.8 |
| O=C(Nc1ccc(Oc2cccnc2)cc1)C1CCN(Cc2cc(Cl)ccc2O)CC1 | -1.38 |
| CC1(c2ccc(Cl)cc2Cl)NC(=O)N(CC(=O)NC2CCCCC2)C1=O (centres unmarked) | 9.22 |
| Cc1[nH]c2ccc(C(=O)N3CCN(C)CC3)cc2c1C | 26.9 |
| CCOC(=O)N1CCN(c2ccc(C(=O)CC)cc2F)CC1 | 12.4 |
| CCN(CC)CCCNC(=S)N(Cc1cccs1)Cc1cc2cc3c(cc2[nH]c1=O)OCCO3 | 7.98 |
| COC(=O)c1c(N2C(=O)[C@H]3[C@@H](C2=O)[C@]2(C(=O)Nc4ccc(C)cc42)N2CCC[C@@H]32)sc(C)c1C | 8.47 |
| CC(=O)c1cccc(NC(=O)C2CC(=O)N(c3ccc4c(c3)OCCO4)C2)c1 (centres unmarked) | 6.81 |
| CCc1ccc(-c2nc(CS(=O)CC(=O)NC3CCCCCC3)c(C)o2)cc1 (centres unmarked) | 16.5 |
| Cc1cc(NC(=O)CSc2nnc(C)n2-c2ccccc2C)no1 | 11.4 |
| Cc1nc(C(C)NC(=O)CCc2nnc(-c3ccsc3)o2)cs1 (centres unmarked) | 7.2 |
| Nc1ccc2c(c1)COC2=O | 9.85 |
| CC(C)(Oc1ccc(Cl)cc1)C(=O)NC1=NN(c2ccccc2)C(=O)C1 | -3.57 |
| Cc1ccc(S(=O)(=O)Nc2ccc(Cl)cc2C(=O)c2ccccc2)cc1 | 12.8 |
| O=C1NC(=O)/C(=C\c2ccccc2OCc2cccc([N+](=O)[O-])c2)N1 | 7.83 |
| Cc1ccc(S(=O)(=O)/C(=C\N(C)C)c2cnc(Cl)s2)cc1 | 9.2 |
| O=C1ON=C(c2ccc(Cl)c([N+](=O)[O-])c2)/C1=C/c1cccc([N+](=O)[O-])c1O | 16.5 |
| O=C(/C=C/c1ccco1)N(Cc1ccc(Cl)cc1)C1CCS(=O)(=O)C1 (centres unmarked) | -19.2 |
| FC(F)(F)c1ccc(-c2nnc(-c3ccccn3)c(-c3ccccn3)n2)nc1 | 11.6 |
| COc1ccc(/C=C(\NC(=O)c2ccccc2)C(=O)NCCN2CCOCC2)cc1 | -3.04 |
